From PubChem BioAssay AID651820 (National Center for Advancing Translational Sciences (NCATS), 2012)
Hit rate of the full screen: of about 340,000 compounds, about 12,000 (3.5%) were called active. Inconclusive results, whose numbers are uncertain, are shown with a selection of clear calls. The call rests on the fitted dose curve; in most records, active means well fitted inhibition curve with a large enough effect; inconclusive means small, poorly fitted or top-dose-only effect, or another doubt; inactive means no such curve, though single readings can be large or run the other way. No potency is given beside an inconclusive call; the fits are too rough.

Test: qHTS Assay for Inhibitors of Hepatitis C Virus (HCV)
Settings: Huh7.5.1 HCVcc-Cre (HCVcc is cell-culture hepatitis C virus) infection, luciferase reporter, 44 h; activity change, negative = inhibition: at 41.8 µM (top of the series) unless noted
Outline: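 Cells seeded at 1,000/well and cultured 4 h, then compounds added followed by HCVcc-Cre virus (~0.5 moi). After 44 h further culture, luciferase substrate was added, plates held 15 min at room temperature, and luminescence read for 15 sec.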
On the % scale 0 is the no-effect control and ±100 the full control effect; potency means the concentration at half of the fitted maximal effect; tags describe the fitted curve by direction and shape.

SMILES	Potency	activity change, negative = inhibition
OCCCCC#Cc1c(-c2ccsc2)sc2ccccc12	inconclusive [inhibitor, partial curve, poor fit]	–
Nc1ccc2c(c1)Cc1cc(N)c(Br)cc1-2	inconclusive [inhibitor, partial curve, poor fit]	–
COc1cc(C)ccc1OCCCOc1ccccc1Br	inactive	–
Nc1nnc(CCCCCCCCCCc2nnc(N)s2)s1	–	inconclusive: -40.5% [inhibitor]
CC(C)(C)C(=O)N(Cc1ccc(Cl)cc1)c1cnccn1	inconclusive [inhibitor, single point]	–
COc1ccc(S(=O)(=O)N(n2c(C)nnc2-n2nc(C)cc2C)S(=O)(=O)c2ccc(OC)cc2)cc1	inactive	–
CSCC[C@H](NC(=O)[C@@H]1Cc2ccccc2CN1)C(=O)NC[C@H]1CC[C@H](C(=O)O)CC1	inactive	–
Cc1ccc(-c2c[n+](CC(=O)Nc3nc(-c4ccccc4)cs3)c3n2CCC3)cc1	active: 6.31 µM	–
COc1cc(NC(=O)Cn2ncc3c2-c2ccccc2OC3)cc(OC)c1OC	inactive	–
CCc1ccc(NC(=O)CSc2ccc(-c3ccco3)nn2)cc1	inconclusive [inhibitor, single point]	–
COC(=O)[C@]1(Cc2ccccc2)N[C@H](CN(C)C(=O)c2ccc(F)cc2)[C@@H]2C(=O)N(Cc3ccccc3)C(=O)[C@@H]21	inconclusive [inhibitor, partial curve]	–
COc1cc(NC(=O)c2cccc(Cl)c2)ccc1NC(=O)c1cccs1	inconclusive [inhibitor, partial curve]	–
COc1ccc(-c2cc(=O)oc3c(C)c(OCC(=O)NCC4CCC(C(=O)O)CC4)ccc23)cc1 (centres undefined)	inactive	–
CCOC(=O)c1c(NC(=O)/C=C/c2ccco2)sc(C)c1C	inconclusive [inhibitor, partial curve]	–
CCC(C)C(=O)OCC1(c2ccc(C)cc2OC(=O)C(C)C)CO1 (centres undefined)	inconclusive [inhibitor, full curve, poor fit]	–
CC(C)(C)C(=O)c1cn(CC(=O)O)c2ccccc12	active: 10 µM	–
O=c1c2cc(Br)ccc2nc(-c2cccc(C(F)(F)F)c2)n1O	inconclusive [inhibitor, partial curve]	–
COC(=O)c1ccccc1NC(=O)COc1ccccc1[N+](=O)[O-]	inconclusive [inhibitor, single point]	–
Cc1ccc(-c2nc3ncccn3c2NC2CCCCC2)o1	inconclusive [inhibitor, single point]	–
COc1ccc(NC(=S)N2CCc3cc(OC)c(OC)cc3C2)cc1	inconclusive [inhibitor, full curve, poor fit]	–
Nc1cccc(C#Cc2ccc3c(c2)C(=O)/C(=C/c2ccsc2)O3)c1	active: 2.51 µM	–
Cc1c(Cl)cccc1NC(=S)NNc1ncc(C(F)(F)F)cc1Cl	inconclusive [inhibitor, single point]	–
COc1cc(Cl)c(C)cc1NC(=O)COC(=O)CCc1nc2ccccc2c(=O)[nH]1	inconclusive [inhibitor, single point]	–

SMILES	Potency	activity change, negative = inhibition
O=C(/C(=C/O)N=Nc1ccc(Cl)cc1)c1ccncc1	inconclusive [inhibitor, single point]	–
O=C1C(c2ccc(F)cc2)N(Cc2ccc3c(c2)OCO3)C(=O)CN1C1CCCCCC1 (centres undefined)	inactive	–
c1ccc(CCc2nn3c(C4COc5ccccc5O4)nnc3s2)cc1 (centres undefined)	inactive	–
Cc1c(C(=O)Nc2ccc(S(=O)(=O)N(C)C3CCN(C)CC3)cc2)oc2c(Cl)cccc12	active: 2 µM	–
CC(C)CN(C(=O)COC(=O)CN1C(=O)c2ccccc2C1=O)c1c(N)n(Cc2ccccc2)c(=O)[nH]c1=O	inactive	–
O=C(Cn1cc2c(n1)CCCCC2)NCc1ccccc1	inactive	–
O=C(CN1C(=O)NC(Cc2c[nH]c3ccccc23)C1=O)Nc1ccc(F)c(F)c1F (centres undefined)	inconclusive [inhibitor, partial curve]	–
N/C(=N\OC(=O)N1CCOCC1)c1ccc(Br)cc1	inconclusive [inhibitor, single point]	–
CNc1ccc2c3c(cccc13)C(=O)N(C)C2=O	inconclusive [inhibitor, partial curve]	–
Cc1cccc(N2CCN(C(=O)c3ccncc3)CC2)c1C	inconclusive [inhibitor, partial curve]	–
O=C(CCCN1C(=O)c2ccccc2C1=O)NCCN1C(=O)S/C(=C\c2cccs2)C1=O	inconclusive [inhibitor, partial curve]	–
Cc1ccc2oc(C(=O)N(C)Cc3ccon3)c(C)c2c1	inactive	–
CCOC(=O)C1(CCOc2ccccc2)CCN(Cc2ccccc2OC)CC1	inconclusive [inhibitor, partial curve]	–
COc1ccc(-n2ncc3c(N4CCN(Cc5ccccc5)CC4)ncnc32)cc1	inconclusive [inhibitor, partial curve]	–
CCOC(=O)N1CCC(N(CCOC)C(=O)Nc2ccc(Cl)cc2)CC1	inconclusive [inhibitor, partial curve]	–
CCOc1ccc(C(=O)NCCC2=CCCCC2)cc1OCC	active: 5.01 µM	–
CC(NC(=O)c1ccc(Cl)c(S(=O)(=O)N2CCCCCC2)c1)c1cccnc1 (centres undefined)	active: 12.6 µM	–
CC1CN(Cc2ccco2)C(=S)N(c2ccccc2)C1=O (centres undefined)	inactive	–
CN(C)c1ccc(C(CNS(=O)(=O)c2ccc(F)c(F)c2)c2c[nH]c3ccccc23)cc1 (centres undefined)	inconclusive [inhibitor, single point]	–
CN1CCN(C(=O)CCN2C(=O)/C(=C/c3ccccc3Cl)SC2=S)CC1	inconclusive [inhibitor, single point]	–
Cc1cc(Nc2ccccc2)n(-c2nc3ccccc3[nH]2)n1	active: 5.01 µM	–
CS(=O)(=O)NCCOc1ccc(S(=O)(=O)N2CCCc3ccccc32)cc1	inconclusive [inhibitor, partial curve]	–
Cc1csc2nc(CSc3nc4ccccc4o3)c(Br)n12	inconclusive [inhibitor, single point]	–

SMILES	Potency	activity change, negative = inhibition
Cc1c(Br)c([N+](=O)[O-])nn1CC(=O)N1CCN(Cc2ccccc2)CC1	inconclusive [inhibitor, single point]	–
N#CC1=C(N)NC(SCC(=O)Nc2ccccc2)=C(C#N)C12CCCCC2	inconclusive [inhibitor, single point]	–
Cc1ccc(C)c(N2CCN(C(=O)c3ccc(CS(=O)(=O)c4ccccc4C)o3)CC2)c1	inconclusive [inhibitor, single point]	–
CCC1CCc2sc(C(=O)OCC(=O)N(CCOC)c3c(N)n(Cc4ccccc4)c(=O)[nH]c3=O)cc2C1 (centres undefined)	inconclusive [inhibitor, full curve]	–
C=C(C)COc1ccc(-c2n[nH]c(C)c2Oc2ccccc2OC)c(O)c1	active: 31.6 µM	–
CCOC(=O)N1CCN(C(=O)COc2ccc3oc4c(c3c2)CCCC4)CC1	inconclusive [inhibitor, single point]	–
CC(C)(C)c1ccc(OCC(=O)NCc2ccco2)c(Br)c1	inactive	–
O=[N+]([O-])c1cccc(-c2cc(-c3cc(Br)ccc3O)[nH]n2)c1	active: 10 µM	–
O=C(O)c1cccc(CN2C(=O)S/C(=C/c3ccccc3[N+](=O)[O-])C2=O)c1	inconclusive [inhibitor, single point]	–
N#Cc1ccc(COC(=O)CN2C(=O)NC3(CCCC3)C2=O)cc1	inconclusive [inhibitor, single point]	–
Cc1cccc(C)c1OCc1cc(C(=O)N2CCN(c3ccccn3)CC2)no1	inconclusive [inhibitor, partial curve, poor fit]	–
COc1ccccc1/C=C\C(=O)NCC(=O)N/N=C/c1cccc(OC)c1O	inconclusive [inhibitor, single point]	–
CCCCN(CC)CCCNC(=O)c1cc2cc3ccc(C)cc3nc2o1	inconclusive [inhibitor, partial curve]	–
CC(=O)c1ccc(OCCOc2ccc(Cl)c3cccnc23)cc1	inactive	–
C[C@@]12C(=O)N(c3cccc(F)c3)C(=O)N1[C@@H]1c3ccccc3OC[C@@H]1[C@H]2c1ccccc1	inconclusive [inhibitor, single point]	–
CCOC(=O)c1c(NC(=O)CSc2ncn[nH]2)sc(C(C)=O)c1C	inconclusive [inhibitor, partial curve]	–
c1ccc(-c2c[n+]3c(n2-c2ccccc2)CCC3)cc1	inconclusive [inhibitor, partial curve]	–
CCCN1C(=O)/C(=C/c2ccc(N3CCOCC3)cc2)NC1=S	inactive	–
COc1cccc(NC(=O)COC(=O)c2c(C)nn(-c3ccccc3)c2C)c1	inconclusive [inhibitor, partial curve]	–
NCCOc1ccc(C2CCCCC2)cc1	inactive	–
CCN(CC)C(=O)CSc1nc2c(sc(=S)n2-c2ccccc2)c(=O)n1-c1ccc(OC)cc1OC	inconclusive [inhibitor, single point]	–
O=C(NCc1cc(C(F)(F)F)cc(C(F)(F)F)c1)C1CC(c2ccccc2C(F)(F)F)=NO1 (centres undefined)	inconclusive [inhibitor, partial curve]	–
CCCc1nc(SCC(=O)N2CCN(c3ccccc3)CC2)c2c(=O)n(C)c(=O)n(C)c2n1	inconclusive [inhibitor, single point]	–
